Values joined by “and” are separate entries in the source; they are usually repeats but may differ in a detail not shown here. Equal values may be shown once. Part of at least one peptide drawing is inferred or uncertain, most often the ends. *1 amine or outer side, *2 acyl side, *3 side chain or, on linkers, in order; H or OH if unused. Where a SMILES comes first, the peptide text is derived from it. Where no end group is shown, it is not given here. The star is where a group is joined. C20 diacid = O=C(O)CCCCCCCCCCCCCCCCCCC(=O)*; γGlu = O=C(O)[C@H](CCC(=O)[*:2])N[*:1]
Assay: Heat accelerated stability assay under a neutral condition
Format: physicochemical
Conditions: pH about 7.4, 40°C; for Changes in characteristics or properties, 0d / Changes in characteristics or properties, 7d: 1 mg/mL, phosphate; for Concentration change (7d-0d)/%: Day 7 vs Day 0, reversed phase chromatography; for Purity Change% (7d-0d) / Purity Change% (26d-0d): purity from reversed phase chromatography-214 nm; for Purity Change% (7d-0d): Day 7 vs Day 0; for Purity Change% (26d-0d): Day 26 vs Day 0; for Purity decrease on Day 26: Day 26, stated in text as decrease (FIG. 1, FIG. 2)
Method: The lyophilized powder (1 mg/mL) of calcitonin analogues or derivatives prepared in accordance with the method of Example 1 were mixed with sodium dihydrogen phosphate (1.42 mg/mL) and dissolved in ultrapure water in the indicated mass-volume ratios. After adjusting pH to about 7.4 with hydrochloric acid/sodium hydroxide, the solution was filtered into a sterilized vial in a clean bench using a 0.22 µm sterile filter. The vial was then capped and placed into the stability test chamber at 40°C. Detections were made on Days 7 (7d) and 26 (26d), and during the assay, changes in the characteristics and properties of the polypeptides were observed and recorded. The sample was then centrifuged for 3 min at 10000 rpm at 4°C, and the supernatant was transferred to a liquid phase sample vial for detecting the concentration and purity of the polypeptides using liquid phase chromatography described as below, wherein the concentration of the polypeptide = peak area/injection volume/extinction coefficient/60×flow rate, and the purity of the polypeptide = target peak area/total peak area× 100%.
Conditions of the reversed phase chromatography Flow rate: 1.0 ml/min; Autosampler temperature: 15°C; Column temperature: 25°C; Detection wavelengths: 280 nm and 214 nm; Mobile phase A: 100% H2O+0.05% TFA; Mobile phase B: 100% ACN; and Gradient of elution listed in Table 4: Table 4. Listing of the gradient of elution in the liquid phase chromatography
Results were shown below in Tables 5, 6, and 7. A difference of more than 5% in content as compared with the initial value was typically assumed (for example, as prescribed by the Chinese Pharmacopeia (2020 Edition)) to be a significant change. Within a reasonable margin of error, a decrease of less than 1% from the initial value to the detected content is denoted as "no change" below. Table 5. Changes in characteristics or properties in the heat accelerated stability assay

| Compound | Changes in characteristics or properties, 0d | Changes in characteristics or properties, 7d | Concentration change (7d-0d)/% | Purity Change% (7d-0d) | Purity Change% (26d-0d) | Purity decrease on Day 26 [%] |
| --- | --- | --- | --- | --- | --- | --- |
| CC[C@H](C)[C@H](NC(=O)[C@@H]1CCCN1C(=O)CNC(=O)[C@H](Cc1ccccc1)NC(=O)[C@H](CC(N)=O)NC(=O)[C@H](CC(N)=O)NC(=O)[C@H](CO)NC(=O)[C@H](CO)NC(=O)[C@H](Cc1c[nH]cn1)NC(=O)[C@H](CCCNC(=N)N)NC(=O)[C@H](CC(C)C)NC(=O)[C@H](Cc1ccccc1)NC(=O)[C@H](CCC(=O)O)NC(=O)[C@H](C)NC(=O)[C@H](CC(C)C)NC(=O)[C@H](CCCNC(=N)N)NC(=O)[C@H](CCC(N)=O)NC(=O)[C@@H](NC(=O)[C@H](C)NC(=O)[C@@H]1CSSC[C@H](NC(=O)[C@H](CCCCN)NC(=O)CC[C@H](NC(=O)CCCCCCCCCCCCCCCCCCC(=O)O)C(=O)O)C(=O)N[C@@H](CC(N)=O)C(=O)N[C@@H]([C@@H](C)O)C(=O)N[C@@H](C)C(=O)N[C@@H]([C@@H](C)O)C(=O)N1)[C@@H](C)O)C(=O)N[C@@H](CC(C)C)C(=O)N1CCC[C@H]1C(=O)N1CCC[C@H]1C(=O)N[C@H](C(=O)N[C@@H](CC(N)=O)C(=O)N[C@H](C(=O)NCC(=O)N[C@@H](CO)C(=O)N[C@@H](CC(N)=O)C(=O)N[C@H](C(=O)N1CCC[C@H]1C(N)=O)[C@@H](C)O)C(C)C)[C@@H](C)O [D1, Cagrilintide, reference compound] | Clear | Clear |  |  |  |  |
| CC(C)C[C@H](NC(=O)[C@H](CCCCN)NC(=O)CNC(=O)[C@H](CC(C)C)NC(=O)[C@@H](NC(=O)[C@@H]1CSSC[C@H](N)C(=O)N[C@@H](CO)C(=O)N[C@@H](CC(N)=O)C(=O)N[C@@H](CC(C)C)C(=O)N[C@@H](CO)C(=O)N[C@@H]([C@@H](C)O)C(=O)N1)C(C)C)C(=O)N[C@@H](CO)C(=O)N[C@@H](CCC(N)=O)C(=O)N[C@@H](CCC(=O)O)C(=O)N[C@@H](CC(C)C)C(=O)N[C@@H](Cc1c[nH]cn1)C(=O)N[C@@H](CCCCN)C(=O)N[C@@H](CC(C)C)C(=O)N[C@@H](CCC(N)=O)C(=O)N[C@H](C(=O)N[C@@H](Cc1ccc(O)cc1)C(=O)N1CCC[C@H]1C(=O)N[C@@H](CCCNC(=N)N)C(=O)N[C@H](C(=O)N[C@@H](CC(N)=O)C(=O)N[C@H](C(=O)NCC(=O)N[C@@H](CO)C(=O)NCC(=O)N[C@H](C(=O)N1CCC[C@H]1C(N)=O)[C@@H](C)O)[C@@H](C)O)[C@@H](C)O)[C@@H](C)O [D2, salmon calcitonin, reference compound] | Clear | Clear | -40.064% | -47.82% |  |  |
| CC(C)C[C@H](NC(=O)[C@H](CCCNC(=N)N)NC(=O)CNC(=O)[C@H](CC(C)C)NC(=O)[C@@H](NC(=O)[C@H](C)NC(=O)[C@@H](NC(=O)[C@H](CO)NC(=O)[C@H](CC(C)C)NC(=O)[C@H](CC(=O)O)NC(=O)[C@H](CO)NC(=O)[C@H](C)NC(=O)CC[C@H](NC(=O)CCCCCCCCCCCCCCCCCCC(=O)O)C(=O)O)[C@@H](C)O)C(C)C)C(=O)N[C@@H](CO)C(=O)N[C@@H](CCC(N)=O)C(=O)N[C@@H](CCC(=O)O)C(=O)N[C@@H](CC(C)C)C(=O)N[C@@H](Cc1c[nH]cn1)C(=O)N[C@@H](CCCNC(=N)N)C(=O)N[C@@H](CC(C)C)C(=O)N[C@@H](CCC(N)=O)C(=O)N[C@@H](CC(=O)O)C(=O)N[C@@H](Cc1ccc(O)cc1)C(=O)N1CCC[C@H]1C(=O)N[C@@H](CCCNC(=N)N)C(=O)N[C@H](C(=O)N[C@@H](CC(=O)O)C(=O)N[C@H](C(=O)NCC(=O)N[C@@H](CO)C(=O)NCC(=O)N[C@@H](CO)C(=O)N1CCC[C@H]1C(N)=O)C(C)C)[C@@H](C)O [M7] ({C20 diacid-γGlu}-ASDLSTAVLGRLSQELHRLQDYPRTDVGSGSP-NH2) | Clear | Clear | No change (a decrease of less than 1% from the initial value to the detected content is denoted as "no change") | No change (a decrease of less than 1% from the initial value to the detected content is denoted as "no change") | No change (a decrease of less than 1% from the initial value to the detected content is denoted as "no change") |  |
| CC(C)C[C@H](NC(=O)[C@H](CCCNC(=N)N)NC(=O)CNC(=O)[C@H](CC(C)C)NC(=O)[C@@H](NC(=O)[C@H](C)NC(=O)[C@@H](NC(=O)[C@H](CO)NC(=O)[C@H](CC(C)C)NC(=O)[C@H](CCC(N)=O)NC(=O)[C@H](CO)NC(=O)[C@H](C)NC(=O)CC[C@H](NC(=O)CCCCCCCCCCCCCCCCCCC(=O)O)C(=O)O)[C@@H](C)O)C(C)C)C(=O)N[C@@H](CO)C(=O)N[C@@H](CCC(N)=O)C(=O)N[C@@H](CCC(=O)O)C(=O)N[C@@H](CC(C)C)C(=O)N[C@@H](Cc1c[nH]cn1)C(=O)N[C@@H](CCCNC(=N)N)C(=O)N[C@@H](CC(C)C)C(=O)N[C@@H](CCC(N)=O)C(=O)N[C@@H](CC(=O)O)C(=O)N[C@@H](Cc1ccc(O)cc1)C(=O)N1CCC[C@H]1C(=O)N[C@@H](CCCNC(=N)N)C(=O)N[C@H](C(=O)N[C@@H](CC(=O)O)C(=O)N[C@@H](CO)C(=O)NCC(=O)N[C@@H](CO)C(=O)NCC(=O)N[C@@H](CO)C(=O)N1CCC[C@H]1C(N)=O)[C@@H](C)O [M16] ({C20 diacid-γGlu}-ASQLSTAVLGRLSQELHRLQDYPRTDSGSGSP-NH2) | Clear | Clear | No change (a decrease of less than 1% from the initial value to the detected content is denoted as "no change") | No change (a decrease of less than 1% from the initial value to the detected content is denoted as "no change") |  |  |
| CC(C)C[C@H](NC(=O)[C@H](CCCNC(=N)N)NC(=O)CNC(=O)[C@H](CC(C)C)NC(=O)[C@@H](NC(=O)[C@H](CCC(=O)O)NC(=O)[C@@H](NC(=O)[C@H](CO)NC(=O)[C@H](CC(C)C)NC(=O)[C@H](CCC(N)=O)NC(=O)[C@H](CO)NC(=O)[C@H](CCCNC(=N)N)NC(=O)CC[C@H](NC(=O)CCCCCCCCCCCCCCCCCCC(=O)O)C(=O)O)[C@@H](C)O)C(C)C)C(=O)N[C@@H](CO)C(=O)N[C@@H](CCC(N)=O)C(=O)N[C@@H](CCC(=O)O)C(=O)N[C@@H](CC(C)C)C(=O)N[C@@H](Cc1c[nH]cn1)C(=O)N[C@@H](CCCNC(=N)N)C(=O)N[C@@H](CC(C)C)C(=O)N[C@@H](CCC(N)=O)C(=O)N[C@@H](CC(=O)O)C(=O)N[C@@H](Cc1ccc(O)cc1)C(=O)N1CCC[C@H]1C(=O)N[C@@H](CCCNC(=N)N)C(=O)N[C@H](C(=O)N[C@@H](CC(=O)O)C(=O)N[C@H](C(=O)NCC(=O)N[C@@H](CO)C(=O)NCC(=O)N[C@@H](CO)C(=O)N1CCC[C@H]1C(N)=O)C(C)C)[C@@H](C)O [M32] ({C20 diacid-γGlu}-RSQLSTEVLGRLSQELHRLQDYPRTDVGSGSP-NH2) | Clear | Clear | No change (a decrease of less than 1% from the initial value to the detected content is denoted as "no change") | No change (a decrease of less than 1% from the initial value to the detected content is denoted as "no change") |  |  |
| CC(C)C[C@H](NC(=O)[C@H](CCCNC(=N)N)NC(=O)CNC(=O)[C@H](CC(C)C)NC(=O)[C@@H](NC(=O)[C@H](C)NC(=O)[C@@H](NC(=O)[C@H](CO)NC(=O)[C@H](CC(C)C)NC(=O)[C@H](CCC(=O)O)NC(=O)[C@H](CO)NC(=O)[C@H](C)NC(=O)CC[C@H](NC(=O)CCCCCCCCCCCCCCCCCCC(=O)O)C(=O)O)[C@@H](C)O)C(C)C)C(=O)N[C@@H](CO)C(=O)N[C@@H](CCC(=O)O)C(=O)N[C@@H](CCC(=O)O)C(=O)N[C@@H](CC(C)C)C(=O)N[C@@H](Cc1c[nH]cn1)C(=O)N[C@@H](CCCNC(=N)N)C(=O)N[C@@H](CC(C)C)C(=O)N[C@@H](CCC(=O)O)C(=O)N[C@@H](CC(=O)O)C(=O)N[C@@H](Cc1ccc(O)cc1)C(=O)N1CCC[C@H]1C(=O)N[C@@H](CCCNC(=N)N)C(=O)N[C@H](C(=O)N[C@@H](CC(=O)O)C(=O)N[C@H](C(=O)NCC(=O)N[C@@H](CO)C(=O)NCC(=O)N[C@@H](CO)C(=O)N1CCC[C@H]1C(N)=O)C(C)C)[C@@H](C)O [M34] ({C20 diacid-γGlu}-ASELSTAVLGRLSEELHRLEDYPRTDVGSGSP-NH2) | Clear | Clear | -1.618% | No change (a decrease of less than 1% from the initial value to the detected content is denoted as "no change") |  |  |
| ASQLSTAVLGRLSQELHRLQDYPRTDVGSGSP-NH2 [M5] | Clear | Clear | ~1% and -1.051% | No change (a decrease of less than 1% from the initial value to the detected content is denoted as "no change") |  | 0.68 |
| EASELSTAALGRLSAELHELATLPRTETGPESP-NH2 [D3, Mimylin, reference compound] | Clear | Clear |  | -6.85% | -18.00% | 18 |

Reference: EP4692114A1, “CALCITONIN ANALOGUE, AND DERIVATIVE THEREOF AND USE THEREOF” (Hangzhou Sciwind Biosciences Co., Ltd., priority 2023, dated 2024)
